Where “and” joins values, the source holds several entries; their conditions need not be identical. Identical values can stand only once. Counter-ions that a name gives are not always drawn. Screen size: about 5,800 compounds; about 620 (11%) showed activity.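 How the source made its calls: active = score above a cut-off or among the top three wells of a plate; in these data no inactive exceeds 0.85.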 The entries are a selection whose mix differs from that of the whole data set.
System: primary human hepatic stellate cells (donor 1)
Assay: scaled lipid accumulation score (0 = DMSO-like, 1 = nortriptyline-like); higher = stronger HSC inactivation (lipid re-accumulation), active = hit call of the paper
Conditions: 48 h
[1] = library stock concentration: 5 mM
[2] = library stock concentration: 10 mM
[3] = library stock concentration: 1 mM
[4] = library stock concentration: 3.33 mM

Oc1c(I)cc(I)c2cccnc12 [Iodoquinol]
scaled lipid accumulation score [1]: inactive: ≤ 0
scaled lipid accumulation score [2]: inactive: ≤ 0

CCCCCCCC/C=C\CCCCCCCC(=O)N[C@@H](CO)Cc1ccc(O)cc1
scaled lipid accumulation score [3]: inactive: ≤ 0
scaled lipid accumulation score [2]: inactive: 0.088

NCCS(=O)(=O)O [Taurine]
scaled lipid accumulation score [2]: inactive: ≤ 0
scaled lipid accumulation score (library stock concentration: 16 mM): inactive: ≤ 0

COc1cc2nc(N3CCN(C(=O)c4ccco4)CC3)nc(N)c2cc1OC [Prazosin]
scaled lipid accumulation score [2]: active: 1

O=C(Nc1cc(C(F)(F)F)ccc1N1CCCCC1)c1ccncc1
scaled lipid accumulation score [4]: inactive: ≤ -0.009
scaled lipid accumulation score [2]: inactive: ≤ 0

CCn1cc(C(=O)O)c(=O)c2cnc(N3CCNCC3)nc21 [Pipemidic acid]
scaled lipid accumulation score: inactive: ≤ 0
scaled lipid accumulation score [2]: inactive: ≤ 0

N#CC(C#N)=C(N)/C(C#N)=C/c1ccc(O)cc1 [Tyrphostin AG 112]
scaled lipid accumulation score [2]: inactive: ≤ 0

N#CC(C#N)=C(N)/C(C#N)=C/c1ccc(O)cc1
scaled lipid accumulation score [4]: inactive: ≤ 0

CC(C)OC(=O)CCC/C=C\C[C@@H]1[C@@H](/C=C/C(F)(F)COc2ccccc2)[C@H](O)C[C@@H]1O [Tafluprost]
scaled lipid accumulation score [3]: inactive: ≤ 0

CN1CCN(c2nc3cc(C(F)(F)F)ccc3n3cccc23)CC1.O=C(O)/C=C\C(=O)O
scaled lipid accumulation score [2]: active: 1.15

COc1nc(C)nc(Cl)c1NC1=NCCN1
scaled lipid accumulation score [2]: inactive: ≤ 0

COc1nc(C)nc(Cl)c1NC1=NCCN1 [Moxonidine hydrochloride]
scaled lipid accumulation score [2]: inactive: 0.003 and inactive: 0.009

COc1nc(C)nc(Cl)c1NC1=NCCN1 [Moxonidine]
scaled lipid accumulation score: inactive: ≤ 0
scaled lipid accumulation score [4]: inactive: ≤ 0
scaled lipid accumulation score [2]: inactive: ≤ 0

CCCC[C@@H](C=O)NC(=O)[C@H](CC(C)C)NC(=O)OCc1ccccc1 [Calpeptin]
scaled lipid accumulation score [2]: inactive: 0.084
scaled lipid accumulation score (library stock concentration: 13.8 mM): inactive: 0.117

Cc1ccc(S(=O)(=O)NC(=O)NN2CC3CCCC3C2)cc1 (centres undefined) [Gliclazide]
scaled lipid accumulation score: inactive: ≤ 0
scaled lipid accumulation score [4]: inactive: ≤ 0
scaled lipid accumulation score (library stock concentration: 6.2 mM): inactive: 0.012
scaled lipid accumulation score [2]: inactive: ≤ 0 and inactive: ≤ -0.027

O=c1c(O)cccc2cc(O)c(O)c(O)c12 [Purpurogallin]
scaled lipid accumulation score [2]: inactive: ≤ 0

c1ccc(C(NCCNC(c2ccccc2)c2ccccc2)c2ccccc2)cc1
scaled lipid accumulation score [2]: inactive: 0.747

c1ccc(C(NCCNC(c2ccccc2)c2ccccc2)c2ccccc2)cc1 [AMN 082 dihydrochloride]
scaled lipid accumulation score [2]: inactive: 0.607

CC(=O)N[C@@H](CC(=O)N[C@@H](CCC(=O)O)C(=O)O)C(=O)O [Spaglumic acid]
scaled lipid accumulation score: inactive: 0.002
scaled lipid accumulation score [2]: inactive: 0.002

O=c1c(O)c(-c2cc(O)c(O)c(O)c2)oc2cc(O)cc(O)c12 [Myricetin]
scaled lipid accumulation score: inactive: ≤ 0
scaled lipid accumulation score [2]: inactive: 0.113

O=C(O)c1cc2ccccc2[nH]1 [Indole-2-carboxylic acid]
scaled lipid accumulation score [2]: inactive: ≤ 0

Cc1cc(Cn2cnc3c2CC(C(=O)O)N(C(=O)C(c2ccccc2)c2ccccc2)C3)ccc1N(C)C (centres undefined)
scaled lipid accumulation score [4]: inactive: ≤ -0.009
scaled lipid accumulation score [2]: inactive: 0.021 and inactive: 0.002

CC(C)C[C@@H](C=O)NC(=O)[C@H](CC(C)C)NC(=O)[C@H](CC(C)C)NC(=O)OCc1ccccc1
scaled lipid accumulation score [4]: inactive: 0.555
scaled lipid accumulation score [2]: inactive: 0.721

N[C@H]1C(O)O[C@H](CO)[C@@H](O)[C@@H]1O (some centres undefined) [Glucosamine hydrochloride]
scaled lipid accumulation score (library stock concentration: 9.3 mM): inactive: ≤ -0.001
scaled lipid accumulation score [2]: inactive: 0.034

O=c1oc(Cl)c(Cl)c2ccccc12 [3,4-Dichloroisocoumarin]
scaled lipid accumulation score [2]: inactive: 0.402

O=c1oc(Cl)c(Cl)c2ccccc12 [3,4-dichloroisocoumarin]
scaled lipid accumulation score (library stock concentration: 23.3 mM): inactive: 0.634

C=C1C[C@H]2[C@@H]3C=C(C)C4=CC(=O)CC[C@]4(C)[C@H]3CC[C@]2(C)[C@@]1(OC(C)=O)C(C)=O [Melengestrol acetate]
scaled lipid accumulation score [1]: inactive: ≤ 0

C=C1C[C@H]2[C@@H]3C=C(C)C4=CC(=O)CC[C@]4(C)[C@H]3CC[C@]2(C)[C@@]1(OC(C)=O)C(C)=O
scaled lipid accumulation score [2]: inactive: 0.119

COc1ccc2c(c1)c(CC(=O)NCCc1ccccc1)c(C)n2C(=O)c1ccc(Cl)cc1 [N-(2-phenylethyl)-Indomethacin amide]
scaled lipid accumulation score [3]: inactive: 0.049

CCCCCCCCCCCCCCCCCCCC(=O)NCCO [Arachidoyl Ethanolamide]
scaled lipid accumulation score [3]: inactive: ≤ 0

CC(=O)Oc1cccc2c1C(=O)c1c(OC(C)=O)cc(C(=O)O)cc1C2=O [Diacerein]
scaled lipid accumulation score [4]: inactive: ≤ 0
scaled lipid accumulation score [2]: inactive: ≤ -0.001

CC(C)(C#N)c1ccc(N2C(=O)OCc3cnc4ccc(-c5cnc6ccccc6c5)cc4c32)cc1
scaled lipid accumulation score [4]: inactive: 0.051
scaled lipid accumulation score [2]: inactive: 0.782

O=C(O)c1ccc2ccccc2c1O.OCc1cc(C(O)CNCCCCCCOCCCCc2ccccc2)ccc1O (centres undefined) [Salmeterol xinafoate]
scaled lipid accumulation score [2]: active: 0.978

CC1(C)OC(=O)NC1=O [Dimethadione]
scaled lipid accumulation score: inactive: ≤ 0
scaled lipid accumulation score [2]: inactive: ≤ 0
scaled lipid accumulation score (library stock concentration: 15.5 mM): inactive: 0.011

CNc1nc(Nc2cnn(C3CCN(C4COC4)CC3F)c2Cl)ncc1C(F)(F)F (centres undefined)
scaled lipid accumulation score [4]: inactive: ≤ -0.009
scaled lipid accumulation score [2]: inactive: ≤ 0

N[C@@H](C(=O)O)c1ccc(C(=O)O)c(C(=O)O)c1
scaled lipid accumulation score [2]: inactive: ≤ -0.006

N=C(N)NCC1COC2(CCCCC2)O1 (centres undefined) [Guanadrel sulfate]
scaled lipid accumulation score: inactive: ≤ 0

Cn1nnnc1SCC1=C(C(=O)O)N2C(=O)[C@@H](NC(=O)[C@H](O)c3ccccc3)[C@H]2SC1 [Cefamandole sodium salt]
scaled lipid accumulation score: inactive: ≤ 0

CCC[C@H](N[C@@H](C)C(=O)N1[C@H](C(=O)O)C[C@@H]2CCCC[C@@H]21)C(=O)OCC [Perindopril erbumine]
scaled lipid accumulation score (library stock concentration: 4.5 mM): inactive: ≤ 0
scaled lipid accumulation score [2]: inactive: 0.152

CCC[C@H](N[C@@H](C)C(=O)N1[C@H](C(=O)O)C[C@@H]2CCCC[C@@H]21)C(=O)OCC [Perindopril]
scaled lipid accumulation score: inactive: ≤ 0

Fc1ccc(-c2nc3n(c2-c2ccncc2)CCS3)cc1
scaled lipid accumulation score [4]: inactive: ≤ 0
scaled lipid accumulation score [2]: inactive: ≤ -0.001

COCCOc1ccc2c(c1)ncn2-c1ccc2cccc(N3CCC(N)CC3)c2n1
scaled lipid accumulation score [2]: active: 0.937

COc1ccc(NS(=O)(=O)c2ccc(N)cc2)nn1 [Sulfamethoxypyridazine]
scaled lipid accumulation score: inactive: ≤ 0
scaled lipid accumulation score [4]: inactive: ≤ 0
scaled lipid accumulation score (library stock concentration: 7.1 mM): inactive: ≤ 0
scaled lipid accumulation score [2]: inactive: 0.049 and inactive: ≤ 0

— the supplement of paper PMC9135407
